Test results published in PubChem BioAssay AID902 (National Center for Advancing Translational Sciences (NCATS), 2007).
Where “and” joins values, the source holds several entries; their conditions need not be identical. Equal values may be shown once. Hit rate of the full screen: of about 130,000 compounds, about 1,900 (1.5%) were called active. This list was built around the results that the source calls inconclusive (neither active nor inactive); the mix of calls is not that of the screen. Calls follow the shape of the dose curve; as a rule, active = well fitted cell-killing curve with a large enough effect; inconclusive = small, poorly fitted or top-dose-only effect; inactive = no such curve, though single readings can be large or run the other way. Potencies beside an inconclusive call are fits to weak or partial responses and may not hold up.

Experiment: qHTS Screen for Compounds that Selectively Target Cancer Cells with p53 Mutations: Cytotoxicity of p53ts Cells at the Nonpermissive Temperature; also: nearly all actives have a fitted effect of over 55% in size
Conditions: H1299-p53A138V viability at 39C, ATP luminescence, 24 h; activity change, negative = cell killing: at 46.1 µM (top of the series)
Description: NIH Chemical Genomics Center [NCGC] NIH Molecular Libraries Screening Centers Network [MLSCN] MLSCN Grant: 1 X01 MH079844-01 Assay Submitter (PI): Dr. SUN, YI, University of Michigan NCGC Assay Overview: Synthetic Lethal Screen for Compounds to Kill Cancer Cells with p53 Mutation. Tumor suppressor gene p53 serves as a major cellular barrier against tumorigenesis. […] The goal of this screening is to identify small molecule probes that selectively kill cancer cells with mutations in p53. This screening was carried out using two lines of H1299 lung cancer cells. The H1299-p53 A138V line express a temperature sensitive p53 mutant (p53ts) in which the mutant p53 protein (A138V) is in the mutant confirmation when grown at 39C (the nonpermissive temperature) and in the wild type conformation when grown at 32C (the permissive temperature). A H1299-neo line (p53 null) grown at both 39C and 32C were used as counter-screens to filter out false positive associated with temperature shifting. The small molecular compounds that selectively target mutant p53-containing cancer cells were selected as candidate probes for further study. A cytotoxicity assay based on the measurement of ATP contents in cells was used in this screen. Concentration-responses of all the compounds in the library collection were determined in qHTS using the cell lines and temperature conditions as above.
NCGC Assay Protocol Summary: Both the H1299-p53A138V and H1299-neo cell lines were provided by Dr.Yi Sun, a PI at the University Michigan. The cells were maintained and cultured at 37C. The resuspended frozen cells were used to plate the cells in the 1536-well assay plates at a density of 600 cells per well in 5 ul medium. The assay plates with the cells were incubated at 37C for 16 to 30 hours before the experiments. The library compounds in DMSO solution were added to the cells in assay plates and incubated 24 hours at 39C (for mutant p53 conformation) or 32C (for normal p53 conformation as control). An ATP_lite assay kit (PerkinElmer) was used to determine the cell viability. Tomaxifen (100uM) was used as the positive control for cell killing. Data were normalized to the controls for basal activity (DMSO only) and 100% killing (100uM tamoxifen). AC50 values were determined from concentration-response data modeled with the standard Hill equation. P53 assay protocol: 1. Reagent; 5 uL H1299-p53A138V or H1299-neo cell cells/well 2. Time; overnight; 37C incubation 3. Compounds; 23 nL; 5.9 nM to 46 uM 4. Controls; 23 nL; Tamoxifen 100 uM 5. Time; 24 hr; 39C incubation 6. Reagent; 3 uL; ATP_Lite reagent 7. Time; 20 min; Room Temperature 8. Detection; Luminescence; Viewlux plate reader Keywords: p53, synthetic lethal, cancer, cell viability, cytotoxicity, H1299 cell line, luminescence, MLSMR, MLSCN, NIH Roadmap, qHTS, NCGC
% is scaled to controls: 0 for no effect and ±100 for the full control effect; potency is read from the fitted curve at half-maximal effect; tags tell the direction and shape of the fitted curve.

Row | Compound | activity change, negative = cell killing | Potency
1 | O=c1[nH]c(SCc2c(Cl)c(Cl)c(Cl)c(Cl)c2Cl)nc(=S)[nH]1 | inactive: -0.95% [at 9.22 µM] | 
2 | COc1ccc(Nc2cc(C)nc(-n3nc(C)cc3C)n2)cc1Cl |  | inconclusive: 5.01 µM [cytotoxic, full curve]
3 | Cc1ccc(C2=Nc3ccccc3NC(c3ccncc3)=N2)cc1 |  | inactive
4 | COc1ccc(NS(=O)(=O)c2ccc(NC(=O)N3CCCC3)cc2)cc1 |  | inactive
5 | COc1ccc(Cl)cc1NC(=O)CN(c1cc(C)cc(C)c1)S(=O)(=O)c1c(C)n[nH]c1C |  | inconclusive: 20 µM [cytotoxic, single point]
6 | C=CCNC(=O)c1ccc(Cl)cc1Cl |  | inactive
7 | O=C(Nc1ccccn1)c1ccc(NC(=O)c2ccco2)cc1 |  | inconclusive: 10 µM [cytotoxic, partial curve]
8 | Cc1nn(CC(=O)NCCc2ccccc2Cl)c(=O)c2nn(-c3ccccc3)c(C)c12 |  | inactive
9 | O=C(Nc1ccc(N2CCCCC2)c(Cl)c1)c1ncn[nH]1 |  | inconclusive: 12.6 µM [cytotoxic, partial curve]
10 | COc1ccccc1C(=O)N1CCN(c2nc3cc(C)c(C)cc3cc2C#N)CC1 |  | inactive
11 | O=C(CN1CCSc2ccccc21)N1CCN(c2cccc(Cl)c2)CC1 |  | inconclusive: 1.26 µM [cytotoxic, full curve]
12 | CCCSCCCNC(=O)c1ccc2c(c1)nc1n2CCCCC1 |  | inconclusive: 6.31 µM [cytotoxic, partial curve]
13 | Cc1ccc(Nc2cc(C)c(C#N)c3nc4ccccc4n23)cc1Cl |  | inactive
14 | CC(C)c1cc(-c2nc(-c3ccccc3)no2)n[nH]1 |  | inconclusive: 20 µM [cytotoxic, single point]
15 | O=C(CSc1nc(-c2ccccc2)[nH]c1-c1ccccc1)Nc1ccc2c(c1)OCCO2 |  | inconclusive: 12.6 µM [cytotoxic, single point]
16 | O=[N+]([O-])c1ccccc1Nc1ccccc1 |  | inactive
17 | CCOCCCNc1ccc(-c2ccccc2)nn1 |  | inconclusive: 10 µM [cytotoxic, partial curve]
18 | Cc1c(-c2ccc(O)cc2)nn(-c2ccc(O)cc2)c1-c1ccc(OCCN2CCCCC2)cc1 |  | active: 31.6 µM
19 | CCOC(=O)c1cccnc1SCC(=O)Nc1ccc(C)cc1C |  | inconclusive: 15.8 µM [cytotoxic, partial curve, poor fit]
20 | CCOC(=O)N1CCN(c2c(F)cc3[nH]c(=S)[nH]c3c2Br)CC1 |  | inconclusive: 25.1 µM [cytotoxic, single point]
21 | CCOCCCNc1ncnc2c1cnn2-c1ccc(C)c(C)c1 |  | inconclusive: 20 µM [cytotoxic, partial curve]
22 | Cc1cc2c(cc1S(=O)(=O)N1CCCCC1)OCC(=O)N2 |  | inconclusive: 31.6 µM [cytotoxic, single point]
23 | CCCCN(CCCC)CCNC(=O)c1cn(CC)c2ccc(S(=O)(=O)N(C)C3CCCCC3)cc2c1=O |  | inconclusive: 12.6 µM [cytotoxic, single point]
24 | O=C(Nc1ccc(Cl)cc1)Nc1ccc2c(c1)N1CCN=C1S2 |  | inactive

Row | Compound | activity change, negative = cell killing | Potency
25 | CCc1ccccc1NC(=O)N(C)CCc1c(C)nn(C)c1C |  | inconclusive: 0.0089 µM [cytotoxic, full curve, poor fit]
26 | CC(=O)c1cccc(NC(=O)c2cc(-c3ccc(Cl)s3)nc3ccccc23)c1 |  | inconclusive: 12.6 µM [cytotoxic, partial curve]
27 | COc1ccc(C(=O)NC(=S)NNC(=O)c2cnccn2)cc1OC |  | inconclusive: 1.78 µM [cytotoxic, partial curve]
28 | COc1ccc(NC(=O)CSc2nnc(NC(=O)Nc3ccc(OC)cc3)s2)cc1 |  | inconclusive: 1.58 µM [cytotoxic, full curve, poor fit]
29 | CCOc1ccc(CCNC(=O)CCCn2nc(C)c3sc4ccccc4c3c2=O)cc1 |  | inconclusive: 3.16 µM [cytotoxic, single point]
30 | Cc1nnc(N2CCC(C(=O)NCCc3ccccc3Cl)CC2)c2nn(-c3ccccc3)c(C)c12 |  | inconclusive: 0.316 µM [cytotoxic, partial curve]
31 | COC(=O)c1sccc1NC(=O)c1cc2c(s1)CCCC2 |  | inconclusive: 12.6 µM [cytotoxic, single point]
32 | Cc1ccccc1-c1nc2cc(NC(=O)Cc3ccc(Cl)cc3)ccc2o1 |  | inconclusive: 10 µM [cytotoxic, partial curve]
33 | CCCCCCOc1ccc(C2C(=O)N(C3CCCCC3)CC(=O)N2CCC)cc1 (stereo not given) |  | inconclusive: 0.501 µM [cytotoxic, full curve, poor fit]
34 | CCn1c(=O)[nH]c2cc(Cl)c(Cl)cc21 |  | inactive
35 | CCOc1ccccc1NC(=O)Cn1cnc2c(cnn2-c2ccc(C)c(C)c2)c1=O |  | inactive
36 | Cc1ccc(/C=C/c2onc(C)c2S(=O)(=O)N2CCC(C(=O)N3CCC(N(C)C(C)C)CC3)CC2)cc1 |  | active: 20 µM
37 | COc1ccccc1/C=C/c1nc2ccccc2n1C(C)C |  | active: 15.8 µM
38 | COc1ccc(Cl)cc1NC(=O)Cc1ccc(NC(=O)N2CCCCc3ccccc32)cc1 |  | inconclusive: 6.31 µM [cytotoxic, partial curve, poor fit]
39 | O=C(CCl)N1c2ccccc2OCC1c1ccccc1 (stereo not given) |  | inconclusive: 31.6 µM [cytotoxic, single point]
40 | Cc1nc(C)c(-c2ccc(SCC(=O)Nc3ccc(Br)cc3)nn2)s1 |  | inconclusive: 15.8 µM [cytotoxic, partial curve]
41 | CC(C)C(NC(=O)OCc1ccccc1)C(=O)NCC(=O)OC(C)(C)C (stereo not given) |  | inactive
42 | CC(=O)c1cc2c(cc1N/C(=N/S(=O)(=O)c1ccc(Cl)cc1)c1ccc(F)cc1)OCO2 |  | inconclusive: 31.6 µM [cytotoxic, single point]
43 | COc1ccc(-c2cn3cc(C)ccc3n2)cc1OC |  | active: 12.6 µM
44 | CSc1ccc(CCNC(=O)c2cnc3c(C)cccn3c2=O)cc1 | inconclusive: -30.4% [cytotoxic] | 
45 | Cc1ccc(/C=C/c2onc(C)c2S(=O)(=O)N2CCC(C(=O)Nc3ccc(C)c(N(C)C)c3)CC2)cc1 |  | inactive
46 | CC1CCCN(CCCNC(=O)c2ccc3c(c2)N(Cc2ccccc2F)C(=O)c2ccccc2S3(=O)=O)C1 (stereo not given) |  | inconclusive: 15.8 µM [cytotoxic, single point]
47 | Oc1c(CN2CCCCC2)cc(Br)c2cccnc12 |  | active: 10 µM
48 | Cc1cc(C)c(NC(=O)Cn2c(=O)n(CC(=O)NCc3ccccc3Cl)c(=O)c3sccc32)c(C)c1 |  | inactive

Row | Compound | activity change, negative = cell killing | Potency
49 | Cc1cc(O)c(C=O)c(O)c1C(=O)O |  | inactive
50 | CCCCN(CC)CCCNC(=O)c1sc2nc(C)cc(C)c2c1-n1cccc1 |  | inconclusive: 3.16 µM [cytotoxic, single point]
51 | Cc1ccc(S(=O)(=O)N(CC(O)Cn2c3ccccc3c3ccccc32)c2cccc(C(N)=O)c2)cc1 (stereo not given) |  | inconclusive: 31.6 µM [cytotoxic, single point]
52 | COc1cccc(-c2cc(C(=O)Nc3cc(Cl)ccc3O)on2)c1 |  | inactive
53 | CCN1CCN(CCCNC(=O)c2cc3c(=O)n(C)c4ccccc4c3s2)CC1 |  | inconclusive: 20 µM [cytotoxic, single point]
54 | Cc1ccccc1-c1nc(CS(=O)(=O)CC(=O)NCC(C)c2ccccc2)c(C)o1 (stereo not given) |  | inactive
55 | COCCCNC(=O)c1oc2c(c1C)-c1nn(Cc3cccc(Cl)c3)cc1CC2 |  | inconclusive: 31.6 µM [cytotoxic, single point]
56 | CCN(CCCNC(=O)c1cc2c(=O)n(C)c3ccccc3c2s1)Cc1ccccc1 |  | active: 12.6 µM
57 | O=C(CSc1c2c(nc3ccc(Cl)cc13)CCCC2)N1CCN(c2cccc(Cl)c2)CC1 |  | inconclusive: 7.94 µM [cytotoxic, partial curve, poor fit]
58 | Cc1cc2ncn(CCCCOc3ccccc3)c2cc1C |  | inconclusive: 31.6 µM [cytotoxic, single point]
59 | O=C(COC(=O)c1ccco1)Nc1ccc(Br)cc1 |  | inactive
60 | CCCC(=O)Nc1ccc(NC(=O)c2cccc(OC)c2)nc1 |  | inconclusive: 10 µM [cytotoxic, partial curve]
61 | Cc1nnc(NCc2ccccc2)c2c1nnn2Cc1ccccc1Cl |  | inconclusive: 31.6 µM [cytotoxic, single point]
62 | O=C(CSCc1ccccc1Cl)N1CCN(c2ccc(F)cc2)CC1 |  | inconclusive: 31.6 µM [cytotoxic, partial curve]
63 | COc1ccc2nc3c(nc2c1)C(=O)c1ccccc1-3 |  | inconclusive: 12.6 µM [cytotoxic, partial curve]
64 | CCCC(=O)Nc1ccc(N2CCCCC2)cc1 |  | inconclusive: 10 µM [cytotoxic, partial curve]
65 | COc1cc(NC(=O)CC2C(=O)N(c3ccc(Cl)cc3)C(=O)N2Cc2cccs2)cc(OC)c1 (stereo not given) |  | inconclusive: 0.0501 µM [cytotoxic, full curve, poor fit]
66 | COc1cccc(OCC(=O)Nc2ccccc2C(N)=O)c1 |  | inconclusive: 12.6 µM [cytotoxic, partial curve]
67 | Cc1ccc(C(=O)Nc2cccc(C(=O)O)c2)cc1S(=O)(=O)N1CCCC1 |  | active: 6.31 µM
68 | CCOc1ccccc1N(CC)C(=O)c1cc2c(=O)[nH]c3ccc(C)cc3c2s1 |  | inconclusive: 31.6 µM [cytotoxic, single point]
69 | O=c1c2ccccc2nc2sc3ccccc3n12 |  | inactive and inconclusive: 25.1 µM [cytotoxic, single point]
70 | Clc1cccc(-n2ncc3c(N4CCCCC4)ncnc32)c1 |  | active: 6.31 µM
